Experimental data taken from the BET-seq Pho4 binding data (Le et al. 2018).
The list shows a part of the results. The energies were worked out here from pooled read counts, against the library average; single values are noisy.

The sequences below were run against T1, Pho4 (S. cerevisiae) (UniProt P07270) (assay: relative binding free energy (BET-seq); higher = weaker binding). Conditions: reference: library average.
T1 sequence: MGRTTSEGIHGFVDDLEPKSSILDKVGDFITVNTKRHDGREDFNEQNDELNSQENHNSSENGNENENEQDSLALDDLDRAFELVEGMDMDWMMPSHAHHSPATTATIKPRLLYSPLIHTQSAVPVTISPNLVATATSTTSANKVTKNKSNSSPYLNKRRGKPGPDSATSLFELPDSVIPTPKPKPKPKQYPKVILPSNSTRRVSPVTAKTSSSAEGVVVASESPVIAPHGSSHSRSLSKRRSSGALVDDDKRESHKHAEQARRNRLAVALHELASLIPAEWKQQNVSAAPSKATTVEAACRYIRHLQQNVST
For GTATTCACGTGAGTTT, the “relative binding free energy” value was 0.34 kcal/mol. For GGTTCCACGTGGGTAA, the “relative binding free energy” value was 0.07 kcal/mol. For ACGATCACGTGGGCGG, the “relative binding free energy” value was -0.01 kcal/mol. For TTTGCCACGTGTCTGG, the “relative binding free energy” value was -0.09 kcal/mol. With GGGGCCACGTGGTTTA the “relative binding free energy” value was 0.01 kcal/mol. For GGGGGCACGTGTAAAA, the “relative binding free energy” value was 0.12 kcal/mol. With GTGTCCACGTGATGTT the “relative binding free energy” value was 0.23 kcal/mol. With GATGGCACGTGCTGGG the “relative binding free energy” value was -0.04 kcal/mol. In the case of TTATGCACGTGGGTCG, the “relative binding free energy” value is reported as -0.24 kcal/mol. With TGGCTCACGTGGAATG the “relative binding free energy” value was 0.35 kcal/mol. In the case of AGTTGCACGTGAGAGA, the “relative binding free energy” value is reported as 0.23 kcal/mol. For AGAGTCACGTGAAGGT, the “relative binding free energy” value was 0.29 kcal/mol. With CTAGGCACGTGGGTGC the “relative binding free energy” value was -0.25 kcal/mol. With ACTGGCACGTGGGGGC the “relative binding free energy” value was -0.18 kcal/mol. With ATTTTCACGTGTGGCC the “relative binding free energy” value was 0.32 kcal/mol. CGTTGCACGTGATGGA was tested, and the “relative binding free energy” value was 0.14 kcal/mol. With GTGTTCACGTGGTCGC the “relative binding free energy” value was 0.37 kcal/mol. CGTTTCACGTGGGTTG was tested, and the “relative binding free energy” value was 0.18 kcal/mol. AGTCTCACGTGGTGTT was tested, and the “relative binding free energy” value was 0.06 kcal/mol. With TTTACCACGTGGGGGC the “relative binding free energy” value was -0.17 kcal/mol. TGAGTCACGTGTCGGA was tested, and the “relative binding free energy” value was 0.11 kcal/mol. In the case of TTATTCACGTGTGGGA, the “relative binding free energy” value is reported as 0.19 kcal/mol. In the case of ATAGGCACGTGTAGCT, the “relative binding free energy” value is reported as -0.01 kcal/mol. CGATCCACGTGTGTGT was tested, and the “relative binding free energy” value was 0.08 kcal/mol. For TGTTGCACGTGGGGCA, the “relative binding free energy” value was -0.17 kcal/mol. For CATGTCACGTGTAGGA, the “relative binding free energy” value was 0.14 kcal/mol. With ATGTACACGTGACTGT the “relative binding free energy” value was 0.19 kcal/mol. For CAAGGCACGTGTGGGT, the “relative binding free energy” value was 0.02 kcal/mol. For AATTTCACGTGGGCGC, the “relative binding free energy” value was 0.31 kcal/mol. With TTTGGCACGTGAACCG the “relative binding free energy” value was 0.2 kcal/mol. With GCAGTCACGTGGGAGT the “relative binding free energy” value was -0.09 kcal/mol. In the case of GGTCACACGTGTGGGG, the “relative binding free energy” value is reported as 0.13 kcal/mol. For TGTGCCACGTGGGTAG, the “relative binding free energy” value was -0.25 kcal/mol. With TTGCGCACGTGAGAGG the “relative binding free energy” value was 0.23 kcal/mol. GATGGCACGTGAAAGG was tested, and the “relative binding free energy” value was 0.22 kcal/mol. GGGATCACGTGGGGTT was tested, and the “relative binding free energy” value was 0.1 kcal/mol. For TGTTACACGTGCGAGT, the “relative binding free energy” value was 0.06 kcal/mol. With CTTGTCACGTGTTGCG the “relative binding free energy” value was 0.13 kcal/mol. With TGAGACACGTGAATTT the “relative binding free energy” value was 0.25 kcal/mol. TTTAGCACGTGATCGT was tested, and the “relative binding free energy” value was -0.07 kcal/mol. In the case of GGCGTCACGTGGATGT, the “relative binding free energy” value is reported as 0.24 kcal/mol. In the case of TTTAACACGTGGGACT, the “relative binding free energy” value is reported as -0.05 kcal/mol. CTTTGCACGTGTTTTG was tested, and the “relative binding free energy” value was 0.05 kcal/mol. CTTTGCACGTGTTAAT was tested, and the “relative binding free energy” value was -0.1 kcal/mol. For TGATGCACGTGTATGG, the “relative binding free energy” value was 0.09 kcal/mol. With CTTGGCACGTGTCGGG the “relative binding free energy” value was -0.02 kcal/mol. In the case of GTCAGCACGTGTTGGG, the “relative binding free energy” value is reported as 0.03 kcal/mol. For ATATACACGTGAGGCG, the “relative binding free energy” value was 0.32 kcal/mol. TGTAACACGTGGGATT was tested, and the “relative binding free energy” value was -0.16 kcal/mol. In the case of GGTGCCACGTGCATGG, the “relative binding free energy” value is reported as -0.06 kcal/mol. For GTGGCCACGTGTTCAG, the “relative binding free energy” value was -0.02 kcal/mol. In the case of GGTCGCACGTGACGGG, the “relative binding free energy” value is reported as 0 kcal/mol. TGGTGCACGTGGCCGG was tested, and the “relative binding free energy” value was -0.18 kcal/mol. In the case of TCTGGCACGTGGCTAT, the “relative binding free energy” value is reported as -0.02 kcal/mol. In the case of CCGGTCACGTGGGAGG, the “relative binding free energy” value is reported as -0.06 kcal/mol. For GTTATCACGTGGATTA, the “relative binding free energy” value was 0.15 kcal/mol. For GGGGGCACGTGTAGGT, the “relative binding free energy” value was -0.04 kcal/mol. In the case of CACGGCACGTGGGGGT, the “relative binding free energy” value is reported as -0.18 kcal/mol. For AGTCGCACGTGTCTGG, the “relative binding free energy” value was -0.14 kcal/mol. AAAGCCACGTGTGTTT was tested, and the “relative binding free energy” value was 0.09 kcal/mol. With TTAGTCACGTGGTTAT the “relative binding free energy” value was -0.01 kcal/mol. In the case of TACATCACGTGATTTG, the “relative binding free energy” value is reported as 0.23 kcal/mol. For TTCAGCACGTGTCTTG, the “relative binding free energy” value was -0.07 kcal/mol. CTGGGCACGTGAGTGA was tested, and the “relative binding free energy” value was -0.09 kcal/mol. With TTATTCACGTGTGACG the “relative binding free energy” value was 0.32 kcal/mol. CAATTCACGTGGGTGT was tested, and the “relative binding free energy” value was 0.11 kcal/mol. With TGTGACACGTGATTAT the “relative binding free energy” value was 0.1 kcal/mol. With CGGAGCACGTGGCGGT the “relative binding free energy” value was -0.1 kcal/mol. For AAGATCACGTGAGTAT, the “relative binding free energy” value was 0.52 kcal/mol. With TTGTGCACGTGTAAGG the “relative binding free energy” value was 0.11 kcal/mol. CGGCGCACGTGTGCGT was tested, and the “relative binding free energy” value was -0.04 kcal/mol. With TCGTCCACGTGGGGGA the “relative binding free energy” value was -0.2 kcal/mol. GGCTGCACGTGGCGTT was tested, and the “relative binding free energy” value was -0.06 kcal/mol. With GGATTCACGTGTGCAT the “relative binding free energy” value was 0.28 kcal/mol. In the case of TTTAACACGTGGCATG, the “relative binding free energy” value is reported as -0.2 kcal/mol. For GTTGTCACGTGGGCTT, the “relative binding free energy” value was 0 kcal/mol. In the case of AGCCGCACGTGTGGGT, the “relative binding free energy” value is reported as -0.08 kcal/mol. With GCTGGCACGTGCGGTT the “relative binding free energy” value was -0.01 kcal/mol. GCATGCACGTGGGGCT was tested, and the “relative binding free energy” value was -0.21 kcal/mol. For GTGATCACGTGCGTAT, the “relative binding free energy” value was 0.07 kcal/mol. TGGCTCACGTGGAGTT was tested, and the “relative binding free energy” value was 0.31 kcal/mol. In the case of GATGTCACGTGTTCAT, the “relative binding free energy” value is reported as 0.1 kcal/mol. For GTGGGCACGTGTGGGC, the “relative binding free energy” value was 0.1 kcal/mol. For ATCAACACGTGGGGTT, the “relative binding free energy” value was -0.15 kcal/mol. With TGGTACACGTGGGTGA the “relative binding free energy” value was -0.09 kcal/mol. With CAGTTCACGTGTCGGG the “relative binding free energy” value was 0.2 kcal/mol. CATTTCACGTGTTTGT was tested, and the “relative binding free energy” value was 0.28 kcal/mol. For CGGAGCACGTGTAGGT, the “relative binding free energy” value was 0.03 kcal/mol. TTTAACACGTGCTTAT was tested, and the “relative binding free energy” value was -0.07 kcal/mol. TTAAACACGTGGGATT was tested, and the “relative binding free energy” value was -0.18 kcal/mol. For TGCTACACGTGGTTTA, the “relative binding free energy” value was 0.07 kcal/mol. For GTTAGCACGTGGGTCC, the “relative binding free energy” value was -0.12 kcal/mol. With GTATCCACGTGGTGTG the “relative binding free energy” value was 0.04 kcal/mol. In the case of GGTACCACGTGGGGTC, the “relative binding free energy” value is reported as -0.19 kcal/mol. For ACAGTCACGTGTGGGC, the “relative binding free energy” value was 0.07 kcal/mol. For TGATGCACGTGAGCTT, the “relative binding free energy” value was 0.17 kcal/mol. TCGTACACGTGTTTTA was tested, and the “relative binding free energy” value was 0.13 kcal/mol. With GTGGGCACGTGGGTTT the “relative binding free energy” value was -0.11 kcal/mol. For GATATCACGTGATAAG, the “relative binding free energy” value was 0.42 kcal/mol. AGCGTCACGTGTAGGA was tested, and the “relative binding free energy” value was -0.05 kcal/mol. With TATGGCACGTGAGACG the “relative binding free energy” value was 0.07 kcal/mol. For GTAAGCACGTGTATGG, the “relative binding free energy” value was 0.06 kcal/mol. With GTTAGCACGTGGGTAG the “relative binding free energy” value was -0.11 kcal/mol. In the case of GGCGACACGTGAGGGC, the “relative binding free energy” value is reported as 0.29 kcal/mol. For CGAATCACGTGGGGGC, the “relative binding free energy” value was 0.05 kcal/mol. In the case of TTCTTCACGTGTTGTC, the “relative binding free energy” value is reported as 0.29 kcal/mol. TTGATCACGTGCGGTT was tested, and the “relative binding free energy” value was 0.21 kcal/mol. For TGGGTCACGTGCTGTA, the “relative binding free energy” value was 0.08 kcal/mol. For AGCGGCACGTGAGGTC, the “relative binding free energy” value was 0.13 kcal/mol. TCTGTCACGTGAGGAG was tested, and the “relative binding free energy” value was 0.2 kcal/mol. For TTAGTCACGTGTGAGT, the “relative binding free energy” value was 0.23 kcal/mol. CGAGTCACGTGTGTTG was tested, and the “relative binding free energy” value was -0.02 kcal/mol. With CTTTGCACGTGTCGTG the “relative binding free energy” value was -0.05 kcal/mol. For CTATGCACGTGGGTTG, the “relative binding free energy” value was -0.2 kcal/mol. With CGTACCACGTGTGGTG the “relative binding free energy” value was -0.04 kcal/mol. In the case of AGGGTCACGTGTTTCG, the “relative binding free energy” value is reported as 0.18 kcal/mol. In the case of TAAGGCACGTGGACGT, the “relative binding free energy” value is reported as -0.11 kcal/mol. With CTGAACACGTGATTGG the “relative binding free energy” value was 0.24 kcal/mol. With GTATGCACGTGGCTGC the “relative binding free energy” value was 0.04 kcal/mol. CGTTGCACGTGTCGGG was tested, and the “relative binding free energy” value was -0.08 kcal/mol. CGGAACACGTGGGGTT was tested, and the “relative binding free energy” value was -0.14 kcal/mol. For TCGATCACGTGGGGGA, the “relative binding free energy” value was -0.13 kcal/mol. TGAGGCACGTGGGCCT was tested, and the “relative binding free energy” value was -0.14 kcal/mol. With TTGGGCACGTGCAGGC the “relative binding free energy” value was -0.18 kcal/mol. AGTGTCACGTGCTCGT was tested, and the “relative binding free energy” value was -0.04 kcal/mol. TGAGACACGTGGATTT was tested, and the “relative binding free energy” value was 0.16 kcal/mol. In the case of TCGGGCACGTGGATAT, the “relative binding free energy” value is reported as -0.08 kcal/mol. For AATTGCACGTGGTCGG, the “relative binding free energy” value was -0.09 kcal/mol. With GTCAACACGTGTGTAT the “relative binding free energy” value was 0.12 kcal/mol. In the case of GGATTCACGTGTTACG, the “relative binding free energy” value is reported as 0.38 kcal/mol. For GGACTCACGTGGTTTG, the “relative binding free energy” value was 0.2 kcal/mol. In the case of TGATACACGTGGCGGT, the “relative binding free energy” value is reported as 0.11 kcal/mol. CATATCACGTGTTAGT was tested, and the “relative binding free energy” value was 0.04 kcal/mol. In the case of ATGTTCACGTGAGGCT, the “relative binding free energy” value is reported as 0.33 kcal/mol. With CGTATCACGTGTTAAG the “relative binding free energy” value was 0.14 kcal/mol. For TATGACACGTGTTGTA, the “relative binding free energy” value was -0.03 kcal/mol. For GGGGCCACGTGTGTGG, the “relative binding free energy” value was 0.05 kcal/mol. AAGCTCACGTGGGTTG was tested, and the “relative binding free energy” value was 0.06 kcal/mol. AATGACACGTGGTGTT was tested, and the “relative binding free energy” value was -0.13 kcal/mol. For CTTAGCACGTGTTGGT, the “relative binding free energy” value was -0.01 kcal/mol. In the case of AATGACACGTGATAGG, the “relative binding free energy” value is reported as 0.12 kcal/mol. GGATACACGTGGGCCG was tested, and the “relative binding free energy” value was 0.02 kcal/mol. For ATATGCACGTGTTATT, the “relative binding free energy” value was -0.05 kcal/mol. GGTTTCACGTGTCGGG was tested, and the “relative binding free energy” value was 0.36 kcal/mol. For AGTAGCACGTGCGTTT, the “relative binding free energy” value was -0.21 kcal/mol. In the case of CCGTTCACGTGTTTGT, the “relative binding free energy” value is reported as 0.12 kcal/mol.
